{"source": "PubChem BioAssay (Tox21)", "key": {"[1]": {"target": "Glucocorticoid receptor (Homo sapiens) (UniProt P04150)", "sequence (P04150 whole entry, looked up)": "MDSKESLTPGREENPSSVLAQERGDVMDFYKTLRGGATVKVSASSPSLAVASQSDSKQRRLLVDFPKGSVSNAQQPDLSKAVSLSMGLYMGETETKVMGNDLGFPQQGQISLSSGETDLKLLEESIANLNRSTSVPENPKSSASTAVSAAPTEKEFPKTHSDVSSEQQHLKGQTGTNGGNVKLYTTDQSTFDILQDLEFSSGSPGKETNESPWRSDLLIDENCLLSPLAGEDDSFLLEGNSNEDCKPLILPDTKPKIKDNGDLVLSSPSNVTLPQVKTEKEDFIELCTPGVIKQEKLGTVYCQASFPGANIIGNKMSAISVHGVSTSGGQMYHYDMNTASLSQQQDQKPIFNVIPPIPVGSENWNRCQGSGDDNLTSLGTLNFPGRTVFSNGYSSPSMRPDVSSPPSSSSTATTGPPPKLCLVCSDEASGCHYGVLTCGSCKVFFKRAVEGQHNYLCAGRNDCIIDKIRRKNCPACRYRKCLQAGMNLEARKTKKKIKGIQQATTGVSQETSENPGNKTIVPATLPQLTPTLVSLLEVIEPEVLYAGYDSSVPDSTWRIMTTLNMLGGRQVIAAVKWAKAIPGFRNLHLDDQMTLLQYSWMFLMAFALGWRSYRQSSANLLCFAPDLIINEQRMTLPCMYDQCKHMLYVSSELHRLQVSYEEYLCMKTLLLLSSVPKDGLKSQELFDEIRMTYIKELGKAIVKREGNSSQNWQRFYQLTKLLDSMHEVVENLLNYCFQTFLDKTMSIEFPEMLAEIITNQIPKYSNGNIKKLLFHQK", "assay": "qHTS assay to identify small molecule agonists of the glucocorticoid receptor (GR) signaling pathway (AID 720691; active = well fitted activation curve with a large enough effect in the signal ratio in the repeat runs, not every such curve was filed as active; inconclusive = weak or mixed curves, or effect the other way; inactive = no such curve, though single readings can be large or run the other way; the % refers to the signal ratio)", "details": "GR-bla HeLa, beta-lactamase reporter ratio, 18 h; activation: at 62.4 µM (top of the series) unless noted", "summary_of_the_method": "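Steps: seed GR-bla HeLa cells, incubate 4 h at 37 C/5% CO2; pin-transfer DMSO-dissolved compounds; incubate 18 h at 37 C; add LiveBLAzer B/G FRET substrate; after 2 h at room temperature, measure fluorescence.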"}, "[2]": {"target": "Estrogen receptor (Homo sapiens) (UniProt P03372)", "sequence (P03372 whole entry, looked up)": "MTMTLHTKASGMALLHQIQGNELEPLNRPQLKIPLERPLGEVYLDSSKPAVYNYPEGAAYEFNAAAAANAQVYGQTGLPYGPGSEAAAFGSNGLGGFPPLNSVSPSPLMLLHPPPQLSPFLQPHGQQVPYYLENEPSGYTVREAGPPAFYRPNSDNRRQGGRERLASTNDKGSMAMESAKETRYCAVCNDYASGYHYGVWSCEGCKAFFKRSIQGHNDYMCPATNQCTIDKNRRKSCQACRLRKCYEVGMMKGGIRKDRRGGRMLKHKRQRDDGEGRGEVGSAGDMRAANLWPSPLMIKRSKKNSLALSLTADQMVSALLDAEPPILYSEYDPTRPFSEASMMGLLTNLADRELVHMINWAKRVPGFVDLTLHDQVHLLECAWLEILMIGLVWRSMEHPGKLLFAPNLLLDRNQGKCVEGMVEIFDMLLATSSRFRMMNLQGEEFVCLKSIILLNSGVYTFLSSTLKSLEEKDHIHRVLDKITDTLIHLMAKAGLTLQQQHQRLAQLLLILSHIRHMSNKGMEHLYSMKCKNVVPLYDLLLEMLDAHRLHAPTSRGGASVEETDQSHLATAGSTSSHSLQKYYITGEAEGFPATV", "assay": "qHTS assay to identify small molecule agonists of the estrogen receptor alpha (ER-alpha) signaling pathway (AID 743075; calls by dose curve; also: potency is read from the fitted curve at half-maximal effect)", "details": "HEK293 ER-alpha-UAS-bla, beta-lactamase FRET ratio, 18 h; activation: at 70.1 µM (top of the series) unless noted"}, "[3]": {"assay": "qHTS assay for small molecule agonists of the antioxidant response element (ARE) signaling pathway - cell viability counter screen (AID 743203; calls by dose curve; also: nearly all actives have a fitted effect of over 55% in size)", "details": "ARE-bla HepG2 viability, CellTiter-Glo luminescence, 16 h; viability change, negative = cytotoxic: at 73.3 µM (top of the series)", "summary_of_the_method": "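Cytotoxicity was tested in parallel with the ARE reporter screen. ARE-bla HepG2 cells were exposed to compounds for 16 hrs, and viability was taken from CellTiter-Glo luminescence.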"}, "[4]": {"assay": "qHTS assay to identify small molecule agonists of the hypoxia (HIF-1) signaling pathway - cell viability counter screen (AID 1224844; calls by dose curve; also: nearly all actives have a fitted effect of over 50% in size)", "summary_of_the_method": "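Cytotoxicity was measured in parallel with the HRE-driven beta-lactamase readout: after 17 hrs of compound exposure at 37C, HRE-bla ME-180 cells received CellTiter-Glo and luminescence was recorded 30 min later.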"}, "[5]": {"assay": "qHTS assay to identify small molecule antagonists of the androgen receptor (AR) signaling pathway using the MDA cell line - cell viability counter screen (AID 743041; also: nearly all actives have a fitted effect of over 45% in size; also: potency is read from the fitted curve at half-maximal effect)", "details": "MDA-kb2 viability, CellTiter-Fluor, 16 h, cells co-treated with R1881 androgen agonist; viability change, negative = cytotoxic: at 70.3 µM (top of the series)", "summary_of_the_method": "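Compound exposure lasted 16 h at 37C in MDA-kb2 AR-luc cells stimulated with R1881. Protease-based CellTiter-Fluor reagent was applied for the final 30 min and fluorescence measured.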"}, "[6]": {"assay": "qHTS RealTime-Glo MT Cell Viability Assay in HepG2 cells - 24 hour (AID 1224867); also: nearly all actives have a fitted effect of over 50% in size", "summary_of_the_method": "(§1)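 Luminescence read-out: viable HepG2 cells reduce a prosubstrate to a NanoLuc substrate, giving a signal proportional to live cell number. Reads taken at 0, 8, 16, 24, 32 and 40 h of compound exposure at 37 C.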"}, "[7]": {"assay": "qHTS assay for small molecule activators of the heat shock response signaling pathway (AID 743210; active = well fitted activation curve with a large enough effect in the signal ratio in the repeat runs, with a control signal flat, not every such curve was filed as active; inconclusive = weak or mixed curves; the % refers to the signal ratio)", "details": "HeLa HSE-bla reporter, beta-lactamase ratio, 5 h; activation: at 62.6 µM (top of the series) unless noted", "summary_of_the_method": "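Following overnight attachment, HSE-bla HeLa cells received test compounds for 5 h at 37 C; beta-lactamase activity was then detected via FRET substrate fluorescence.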"}, "[8]": {"target": "Bile acid receptor (Homo sapiens) (UniProt Q96RI1)", "sequence (Q96RI1 whole entry, looked up)": "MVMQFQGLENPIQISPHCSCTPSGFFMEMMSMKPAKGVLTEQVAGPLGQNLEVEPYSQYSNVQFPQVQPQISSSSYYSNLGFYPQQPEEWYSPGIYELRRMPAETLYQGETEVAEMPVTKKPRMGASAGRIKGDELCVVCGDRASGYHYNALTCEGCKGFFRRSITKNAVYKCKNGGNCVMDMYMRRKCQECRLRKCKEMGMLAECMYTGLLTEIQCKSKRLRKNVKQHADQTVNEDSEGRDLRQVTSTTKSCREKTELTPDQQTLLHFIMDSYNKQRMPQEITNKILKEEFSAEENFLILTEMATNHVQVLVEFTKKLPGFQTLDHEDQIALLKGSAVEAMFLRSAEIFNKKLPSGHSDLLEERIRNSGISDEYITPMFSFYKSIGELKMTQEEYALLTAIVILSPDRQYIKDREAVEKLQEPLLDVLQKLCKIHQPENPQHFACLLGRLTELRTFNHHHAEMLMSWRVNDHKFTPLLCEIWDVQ", "assay": "qHTS assay to identify small molecule antagonists of the farnesoid-X-receptor (FXR) signaling pathway (AID 743217; active = well fitted inhibition curve with a large enough effect in the signal ratio in the repeat runs, not every such curve was filed as active; inconclusive = weak or mixed curves, or effect the other way; inactive = no such curve, though single readings can be large or run the other way; the % refers to the signal ratio)", "details": "HEK293T FXR-UAS-bla, beta-lactamase ratio, CDCA-stimulated, 16 h; series mostly up to 62.6 µM", "summary_of_the_method": "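Cells carrying a UAS-driven beta-lactamase reporter (GeneBLAzer FXR-UAS-bla HEK 293T) were plated and rested 5 h at 37 °C. Compounds in DMSO were added alongside chenodeoxycholic acid agonist at 50 uM final and left 16 h at 37 °C before FRET substrate readout.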"}, "[9]": {"assay": "qHTS assay to identify small molecule antagonists of the retinoic acid receptor (RAR) signaling pathway (AID 1159552)", "summary_of_the_method": "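Using a RARE-driven luciferase construct in C3RL4 cells, retinol at 1 uM final provided the agonist stimulus while compounds were co-applied. After 6 hours at 37 C, luminescence was recorded to flag inhibitors of retinol signaling.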"}, "[10]": {"assay": "qHTS assay to identify small molecule agonists of the constitutive androstane receptor (CAR) signaling pathway - cell viability counter screen (AID 1224836)", "summary_of_the_method": "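Multiplexed viability check: HepG2-CYP2B6-hCAR cells, 15-point compound dosing, 0.75 uM PK11195 final, 23 h at 37 C, CellTiter-Fluor fluorescence.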"}, "[11]": {"assay": "qHTS RealTime-Glo MT Cell Viability Assay in HepG2 cells - 0 hour (AID 1224889)", "summary_of_the_method": "as §1"}, "Aromatase (Homo sapiens)": {"target": "Aromatase (Homo sapiens) (UniProt P11511)", "sequence (P11511 whole entry, looked up)": "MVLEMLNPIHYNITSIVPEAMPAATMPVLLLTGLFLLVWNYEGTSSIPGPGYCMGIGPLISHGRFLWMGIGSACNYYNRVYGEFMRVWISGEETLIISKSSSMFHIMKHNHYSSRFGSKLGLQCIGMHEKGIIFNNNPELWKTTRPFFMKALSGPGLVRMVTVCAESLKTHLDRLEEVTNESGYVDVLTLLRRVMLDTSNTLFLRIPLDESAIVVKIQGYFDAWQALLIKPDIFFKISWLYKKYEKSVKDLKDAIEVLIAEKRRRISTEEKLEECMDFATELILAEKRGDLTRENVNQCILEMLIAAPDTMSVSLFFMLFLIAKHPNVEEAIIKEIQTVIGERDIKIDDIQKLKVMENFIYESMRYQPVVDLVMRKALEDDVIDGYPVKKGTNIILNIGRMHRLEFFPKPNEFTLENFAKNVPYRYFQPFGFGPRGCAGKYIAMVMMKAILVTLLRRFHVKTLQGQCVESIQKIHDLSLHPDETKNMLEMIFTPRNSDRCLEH", "assay": "qHTS assay to identify aromatase inhibitors (AID 743083)"}, "[12]": {"target": "Androgen receptor (Homo sapiens) (UniProt P10275)", "sequence (P10275 whole entry, looked up)": "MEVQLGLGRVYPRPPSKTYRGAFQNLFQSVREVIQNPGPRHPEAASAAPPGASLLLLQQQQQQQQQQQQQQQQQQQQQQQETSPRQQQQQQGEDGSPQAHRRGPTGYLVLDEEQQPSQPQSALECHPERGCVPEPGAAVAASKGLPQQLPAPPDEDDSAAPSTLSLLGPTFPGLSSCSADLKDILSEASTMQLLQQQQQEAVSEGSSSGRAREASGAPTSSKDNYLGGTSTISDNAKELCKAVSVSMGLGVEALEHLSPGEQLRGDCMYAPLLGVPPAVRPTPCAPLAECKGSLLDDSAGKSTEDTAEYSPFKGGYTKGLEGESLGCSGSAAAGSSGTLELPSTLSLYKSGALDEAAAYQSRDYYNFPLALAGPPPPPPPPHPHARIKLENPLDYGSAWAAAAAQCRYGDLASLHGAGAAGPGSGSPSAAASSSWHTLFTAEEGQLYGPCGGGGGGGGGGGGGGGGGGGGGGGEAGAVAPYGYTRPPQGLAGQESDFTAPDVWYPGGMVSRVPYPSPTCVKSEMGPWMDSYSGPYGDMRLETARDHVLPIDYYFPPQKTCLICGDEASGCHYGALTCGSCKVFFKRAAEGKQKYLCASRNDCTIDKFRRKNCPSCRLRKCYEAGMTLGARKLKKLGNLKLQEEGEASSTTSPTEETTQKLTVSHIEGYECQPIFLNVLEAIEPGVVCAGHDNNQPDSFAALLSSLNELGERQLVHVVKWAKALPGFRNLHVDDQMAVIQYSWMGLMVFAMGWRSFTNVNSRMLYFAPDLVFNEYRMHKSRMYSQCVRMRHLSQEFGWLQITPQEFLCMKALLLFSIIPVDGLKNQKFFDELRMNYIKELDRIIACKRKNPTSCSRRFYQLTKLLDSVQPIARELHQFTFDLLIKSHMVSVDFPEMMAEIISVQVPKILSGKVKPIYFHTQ", "assay": "qHTS assay to identify small molecule agonists of the androgen receptor (AR) signaling pathway (AID 743036; active = well fitted activation curve with a large enough effect in the signal ratio in the repeat runs, with a control signal flat, not every such curve was filed as active; inconclusive = weak or mixed curves, or effect the other way; inactive = no such curve, though single readings can be large or run the other way; the % refers to the signal ratio)", "details": "HEK293 AR-UAS-bla GripTite, beta-lactamase FRET ratio, 16 h; activation: at 62.4 µM (top of the series) unless noted", "summary_of_the_method": "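In this Tox21 qHTS, 2,000 HEK293 AR-bla cells per well were incubated with compounds for 16 h at 37C and 5% CO2. Fluorescence intensity was recorded 2 h after adding LiveBLAzer B/G FRET substrate at room temperature.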"}, "[13]": {"assay": "A CellTox Green Cytotoxicity Assay to monitor cytotoxicity in HEK293 cells - 24 hour (AID 1224875)", "summary_of_the_method": "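Cells (HEK293, 600/well) and dye reagent are dispensed together. After 5 h at 37 C, 23 nL compound is pinned in. Plates stay at 37 C for 40 h with fluorescence read at 0h, 8h, 16h, 24h, 32h and 40h.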"}, "[14]": {"assay": "qHTS assay to identify small molecule antagonists of the TGF-beta/Smad signaling pathway - cell viability counter screen (AID 1346824)", "summary_of_the_method": "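SBE-bla HEK 293T cells, incubated overnight, then compound plus 0.25 ng/mL TGF-beta1 (stock added) for 5 hr at 37 C. Viability was read in the same wells by CellTiter-Glo luminescence after 30 min at room temperature.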"}, "[15]": {"assay": "qHTS assay for small molecule activators of the heat shock response signaling pathway - cell viability counter screen (AID 743209)", "details": "HSE-bla HeLa viability, CellTiter-Glo luminescence, 5 h", "summary_of_the_method": "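Cytotoxicity counter screen run in parallel with the HSE beta-lactamase reporter, using the same wells. HeLa HSE-bla cells received compound for 5 h at 37 C; ATP-based CellTiter-Glo luminescence was measured after 30 min at room temperature.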"}, "[16]": {"assay": "qHTS assay to identify small molecule agonists of the TGF-beta/Smad signaling pathway (AID 1346859; active = well fitted activation curve with a large enough effect in the signal ratio in the repeat runs, not every such curve was filed as active; inconclusive = weak or mixed curves; the % refers to the signal ratio)", "summary_of_the_method": "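Stable Smad binding element-beta-lactamase HEK 293T cells; 5 hr compound exposure at 37 C under 5% CO2; 2 hr room-temperature substrate step; fluorescence excited at 405 nm, collected at 460 nm and 530 nm.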"}}, "note": "Inconclusive results, whose numbers are uncertain, are shown with a selection of clear calls. For part of these data: Potencies of inconclusive entries are left out as doubtful fits. Where a structure was tested more than once in an assay, its records may differ in their call. Active and inactive are the calls of the source. Unless noted, calls follow the shape of the dose curve; as a rule, active = well fitted curve in the direction sought with a large enough effect in the repeat runs; inconclusive = weak or mixed curves; inactive = no such curve, though single readings can be large; an effect the other way counts as inactive or inconclusive. Tags tell the direction and shape of the fitted curve or compound fluorescence and quenching."}
{"smiles": "COc1cnc(OC)n2nc(NS(=O)(=O)c3c(OCC(F)F)cccc3C(F)(F)F)nc12", "values": [{"measurement": "Potency", "setting": "[1]", "value": "inactive"}, {"measurement": "Potency", "setting": "[2]", "value": "inactive"}, {"measurement": "Potency", "setting": "[3]", "value": "inactive"}]}
{"smiles": "CC(Cc1ccc(O)cc1)NCC(O)c1cc(O)cc(O)c1", "note": "(stereo unspecified)", "values": [{"measurement": "Potency", "setting": "[4]", "value": "inactive"}]}
{"smiles": "CNC(=O)O/N=C/C(C)(C)S(C)(=O)=O", "values": [{"measurement": "Potency", "setting": "[5]", "value": "inconclusive [rising, full curve, poor fit]"}]}
{"smiles": "N#CN=C(N)N", "values": [{"measurement": "Potency", "setting": "[6]", "value": "inactive"}]}
{"smiles": "CN(N=O)C(N)=O", "values": [{"measurement": "Potency", "setting": "[7]", "value": "inconclusive [activator]"}, {"measurement": "Potency", "setting": "[8]", "value": "inactive"}]}
{"smiles": "Cc1ncc2n1-c1ccc(Cl)cc1C(c1ccccc1F)=NC2", "values": [{"measurement": "Potency", "setting": "[9]", "value": "inconclusive [inhibitor, partial curve]"}, {"measurement": "Potency", "setting": "[10]", "value": "inactive"}]}
{"smiles": "CCN(CCO)CCn1c(Cc2ccccc2)nc2c1c(=O)n(C)c(=O)n2C", "values": [{"measurement": "Potency", "setting": "[7]", "value": "inactive"}, {"measurement": "Potency", "setting": "[4]", "value": "inactive"}]}
{"smiles": "CC(C)NCC(O)c1ccc([N+](=O)[O-])cc1", "note": "(stereo unspecified)", "values": [{"measurement": "Potency", "setting": "[4]", "value": "inactive"}]}
{"smiles": "Cc1cccc([N+](=O)[O-])c1", "values": [{"measurement": "Potency", "setting": "[5]", "value": "inconclusive [rising, partial curve, poor fit]"}, {"measurement": "Potency", "setting": "[2]", "value": "inconclusive [falling, full curve]"}, {"measurement": "Potency", "setting": "[11]", "value": "inactive"}]}
{"smiles": "COP(=O)(NC(C)=O)SC", "note": "(stereo unspecified)", "values": [{"measurement": "Potency", "setting": "Aromatase (Homo sapiens)", "value": "inactive"}]}
{"smiles": "CCC(=O)c1ccccc1", "values": [{"measurement": "Potency", "setting": "[12]", "value": "inconclusive [partial curve, poor fit]"}]}
{"smiles": "CCCCCCCCCCBr", "values": [{"measurement": "Potency", "setting": "[13]", "value": "inactive"}, {"measurement": "Potency", "setting": "[14]", "value": "inconclusive [cytotoxic, single point]"}]}
{"smiles": "O=[N+]([O-])c1ccc(Cl)cc1", "values": [{"measurement": "Potency", "setting": "[15]", "value": "inactive"}, {"measurement": "Potency", "setting": "[10]", "value": "inactive"}, {"measurement": "Potency", "setting": "[4]", "value": "inactive"}]}
{"smiles": "O=C(Nc1ccc(F)cc1F)c1cccnc1Oc1cccc(C(F)(F)F)c1", "values": [{"measurement": "Potency", "setting": "[5]", "value": "inactive"}]}
{"smiles": "CCC1(c2ccccc2)CCC(=O)NC1=O", "note": "(stereo unspecified)", "values": [{"measurement": "Potency", "setting": "[12]", "value": "inactive"}, {"measurement": "Potency", "setting": "[15]", "value": "inactive"}]}
{"smiles": "O=C(O)C(F)(F)C(F)(F)C(F)(F)C(F)(F)C(F)(F)F", "values": [{"measurement": "Potency", "setting": "Aromatase (Homo sapiens)", "value": "inactive"}]}
{"smiles": "Oc1cccc(-c2ccccc2)c1", "values": [{"measurement": "Potency", "setting": "[4]", "value": "inactive"}]}
{"smiles": "CC(=O)[O-].CC(=O)[O-].CC(=O)[O-].[Cr+3]", "values": [{"measurement": "Potency", "setting": "[3]", "value": "inactive"}]}
{"smiles": "CC(CCc1ccccc1)NC(C)C(O)c1ccc(O)cc1", "note": "(stereo unspecified)", "values": [{"measurement": "Potency", "setting": "[1]", "value": "inactive"}, {"measurement": "Potency", "setting": "[3]", "value": "inactive"}, {"measurement": "Potency", "setting": "[16]", "value": "inactive"}]}
{"smiles": "O=c1c2ccccc2c(=O)c2c1cc(Cl)c1[nH]c3c([nH]c12)c(Cl)cc1c(=O)c2ccccc2c(=O)c13", "values": [{"measurement": "Potency", "setting": "[7]", "value": "inactive"}]}
{"smiles": "O=[N+]([O-])c1ccccc1-c1ccccc1", "values": [{"measurement": "Potency", "setting": "[5]", "value": "inactive"}]}
{"smiles": "C[N+](C)(C)Cc1ccccc1", "values": [{"measurement": "Potency", "setting": "[2]", "value": "inconclusive [activator, partial curve, poor fit]"}, {"measurement": "Potency", "setting": "[16]", "value": "active: 48.7 µM"}]}
